Assay results published in PubChem BioAssay AID445 (National Center for Advancing Translational Sciences (NCATS), 2006).
Screen size: about 110,000 compounds; about 40 (0.04%) were called active. Inconclusive means that the source gave no clear call. Such entries were picked first, then a sample of the others. Calls come from the whole dose curve; as a rule, active = well fitted curve in the direction sought with a large enough effect in the signal ratio (not every such curve was filed as active); inconclusive = small, poorly fitted or top-dose-only effect, or a change in a side signal; inactive = flat fitted curve, though single readings scatter; the % refers to the signal ratio. Potencies of inconclusive entries are doubtful fits and often do not repeat.

Assay: IkB Signaling;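 for IkBa stabilization activation: 0% = basal untreated cells and 100% = reference inhibitor full response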
Settings: ABC-DLBCL IkBa-CBG/CBR dual luciferase ratio (green luciferase fused to IkBa over red control in OCI-Ly3 lymphoma cells), 4 h; IkBa stabilization activation: at 57.1 µM (top of the series), scaled: untreated 0%, proteasome inhibitor 100% unless noted
Outline: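 Luminescence ratio of IκBα-fused green versus native red beetle luciferase in OCI-Ly3 cells, 4 h post-doxycycline with compound; red signal alone, scaled from basal (0%) to zero light (-100%), flagged nonspecific or cytotoxic effects.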
Potency is the fitted concentration of half-maximal effect.

Question: Which IkBa stabilization activation does the source give for `O=C(c1ccco1)N1CCN(c2ncnc3c2[nH]c2ccc(Br)cc23)CC1` here?
Answer: inconclusive: -7.9% [signal inhibitor]

Question: With `CCC12CN3CC(C)(CN(C1)C3c1c[nH]c3ccccc13)C2=O` (stereo unspecified) as the compound, how does the IkBa stabilization activation read?
Answer: inconclusive: 1.13% [signal inhibitor]

Question: With `CCc1ccc(NC(=O)CSC2=Nc3ccccc3C3=NC(CCC(=O)NCCc4ccccc4)C(=O)N23)cc1` (stereo unspecified) as the compound, how does the IkBa stabilization activation read?
Answer: inconclusive: 2.4% [signal inhibitor]

Question: Which “IkBa stabilization activation” value does the source give for `CCn1c(=O)c2cc(C(=O)N3CCOCC3)sc2c2ccccc21` here?
Answer: inactive: 6.16%

Question: With `O=C(Nc1ccc(F)cc1Cl)n1ncc2cc(Cl)ccc21` as the compound, how does the IkBa stabilization activation read?
Answer: inconclusive: 2.7% [signal inhibitor]

Question: For `CCC(=O)N1CCc2cc(S(=O)(=O)NC(CC(C)C)C(=O)Nc3cc(C)ccc3OC)ccc21` (stereo unspecified), which IkBa stabilization activation is on record?
Answer: inconclusive: 5.57% [signal inhibitor]

Question: Which “IkBa stabilization activation” value does the source give for `OC[C@H]1NC[C@@H](O)[C@@H](O)[C@H]1O` here?
Answer: inactive: -0.117%

Question: With `COCCOC(=O)/C=C1/NC(=O)CS1` as the compound, how does the “IkBa stabilization activation” value read?
Answer: inactive: 0.0168%

Question: With `COc1ccccc1N(CC(=O)NCCSCc1ccccc1)S(C)(=O)=O` as the compound, how does the IkBa stabilization activation read?
Answer: inconclusive: 4.46% [signal inhibitor]

Question: Which IkBa stabilization activation does the source give for `CCCCc1nn2c(=O)cc(COC(=O)c3cccc(OC)c3)nc2s1` here?
Answer: inconclusive: 2.09% [signal inhibitor]

Question: Which Potency does the source give for `COc1ccccc1NC(=O)Cc1nn(C)c(=O)c2ccccc12` here?
Answer: inconclusive: 31.6 µM [signal inhibitor, partial curve]

Question: Which IkBa stabilization activation does the source give for `Cn1c2ccccc2c2c(C(=O)N3CCN(c4ccc(F)cc4)CC3)cn(C3CCCC3)c(=O)c21` here?
Answer: inconclusive: 3.11% [signal inhibitor]

Question: With `COc1ccc2c(c1)cc1c(=O)n(CC(=O)NCc3ccco3)nc(C)n12` as the compound, how does the “IkBa stabilization activation” value read?
Answer: inactive: 0.193%

Question: Which “IkBa stabilization activation” value does the source give for `CCC/C(O)=C1\C(=O)CC(C)(C)CC1=NCCO` here?
Answer: inactive: -0.366%

Question: Which IkBa stabilization activation does the source give for `CCC(C)Oc1cccc(OCCCCN2C(=O)NC(C)(C)C2=O)c1` (stereo unspecified) here?
Answer: inconclusive: 6.55% [signal inhibitor]

Question: Which IkBa stabilization activation does the source give for `O=C(NCc1ccco1)C(c1ccco1)N(CCc1ccccc1)C(=O)Cn1nnc2ccccc21` (stereo unspecified) here?
Answer: inconclusive: 5.25% [signal inhibitor]

Question: Which IkBa stabilization activation does the source give for `CCCc1cc(-c2[nH]ncc2-c2ccc3c(c2)OCCCO3)c(O)cc1O` here?
Answer: inconclusive: 2.65% [signal inhibitor]

Question: For `CCc1ccc(CNC(=O)c2ccc3c(c2)nc2n3CCC(C)C2)cc1` (stereo unspecified), which IkBa stabilization activation is on record?
Answer: inconclusive: -1.08% [signal inhibitor]

Question: Which IkBa stabilization activation does the source give for `COc1cccc(C(=O)Nc2cccc(OCc3cc(=O)n4cc(C)ccc4n3)c2)c1` here?
Answer: inconclusive: 15.7% [signal inhibitor]

Question: For `COc1ccc(-c2onc(C)c2C)cc1S(=O)(=O)NCc1ccco1`, which “IkBa stabilization activation” value is on record?
Answer: inactive: -0.421%

Question: For `CCOc1cc2[nH]c(=S)n(CCCN3CCOCC3)c(=O)c2cc1OCC`, which “IkBa stabilization activation” value is on record?
Answer: inactive: 0.785%

Question: With `CN=CC1=C(O)c2ccccc2C1=O` as the compound, how does the “IkBa stabilization activation” value read?
Answer: inactive: 0.281%

Question: With `COc1ccc(NC(=O)CN2C(=O)COc3ccc(S(=O)(=O)Nc4ccccc4)cc32)cc1` as the compound, how does the IkBa stabilization activation read?
Answer: inconclusive: -0.506% [signal inhibitor]

Question: For `O=S(=O)(c1cccc(C(F)(F)F)c1)N1c2ccccc2-n2cccc2[C@H]1c1cccnc1`, which IkBa stabilization activation is on record?
Answer: inactive: 9.44% [at 11.4 µM, scaled: untreated 0%, proteasome inhibitor 100%]

Question: Which “IkBa stabilization activation” value does the source give for `CCSc1ncc(Cl)c(C(=O)Nc2c(C(=O)Nc3cccc(C)c3)oc3ccccc23)n1` here?
Answer: inactive: -0.773%

Question: With `Cc1ccc2nc(-c3ccc(Cl)cc3)cc(C(=O)OCC(=O)c3ccccc3)c2c1` as the compound, how does the IkBa stabilization activation read?
Answer: inconclusive: 1.53% [signal inhibitor]

Question: For `COc1ccc(C(=O)NCCc2sc(-c3ccc(F)cc3)nc2C)cc1OC`, which IkBa stabilization activation is on record?
Answer: inconclusive: 0.529% [signal inhibitor]

Question: Which IkBa stabilization activation does the source give for `CC1CCC(NC(=O)C2(C)Cc3ccccc3C(=O)N2Cc2ccc(F)cc2)CC1` (stereo unspecified) here?
Answer: inconclusive: 0.259% [signal inhibitor]

Question: Which IkBa stabilization activation does the source give for `CCc1ccc(C2Sc3ccccc3NC3=C2C(=O)c2ccccc23)cc1` (stereo unspecified) here?
Answer: inconclusive: -0.91% [signal inhibitor]

Question: With `CCC(C(=O)NC1CCCCC1)n1c(SCc2ccc(F)cc2)nc2ccncc21` (stereo unspecified) as the compound, how does the IkBa stabilization activation read?
Answer: inconclusive: 3.12% [signal inhibitor]

Question: With `O=C(COc1ccccc1-c1nnc(-c2ccccc2)o1)Nc1ccc(Br)cc1F` as the compound, how does the IkBa stabilization activation read?
Answer: inconclusive: 2.75% [signal inhibitor]

Question: For `Cc1cccc(/N=C/c2c(O)[nH]c3ccccc23)n1`, which “IkBa stabilization activation” value is on record?
Answer: inactive: 8.89%

Question: Which “IkBa stabilization activation” value does the source give for `CC(C)c1ccc(-c2nnc3n(CCc4ccccc4)c(=O)c4ccccc4n23)cc1` here?
Answer: inactive: 1.5%

Question: With `Cc1cccc(NCc2nc3ccccc3n2CCOc2ccccc2C)c1` as the compound, how does the IkBa stabilization activation read?
Answer: inconclusive: 3% [signal inhibitor]

Question: Which “IkBa stabilization activation” value does the source give for `COCCn1c(C)cc(C(=O)CSc2nnc(C)s2)c1C` here?
Answer: inactive: 0.801%

Question: For `COc1ccc(NC(=O)c2c(C)oc3ccc(O)c(CN4CCCC4)c23)cc1Cl`, which IkBa stabilization activation is on record?
Answer: inconclusive: -0.294% [signal inhibitor]

Question: For `CCCN(CC(=O)c1cc(C)n(C)c1C)S(=O)(=O)c1cccc(C(F)(F)F)c1`, which IkBa stabilization activation is on record?
Answer: inconclusive: -1.21% [signal inhibitor]

Question: Which IkBa stabilization activation does the source give for `COc1cc2cc(C(c3nnnn3C3CCCC3)N3CCc4ccccc43)c(=O)[nH]c2cc1OC` (stereo unspecified) here?
Answer: inconclusive: 4.13% [signal inhibitor]

Question: With `CC(C)c1cc(=O)oc2c3c4c(cc12)CCCN4CCC3` as the compound, how does the IkBa stabilization activation read?
Answer: inconclusive: -2.53% [signal inhibitor]

Question: With `Cc1cccc(N2CCN(C(=O)Cn3ncc4c3-c3ccccc3OC4)CC2)c1C` as the compound, how does the IkBa stabilization activation read?
Answer: inconclusive: 1.37% [signal inhibitor]

Question: For `O=C(Nc1nnc(S(=O)(=O)N2CCCCCC2)s1)c1cccc(Br)c1`, which IkBa stabilization activation is on record?
Answer: inconclusive: 1.69% [signal inhibitor]

Question: With `N#Cc1ccccc1Cn1c(SCC(=O)Nc2ccc(F)cc2)nc2ccccc21` as the compound, how does the IkBa stabilization activation read?
Answer: inconclusive: 4.66% [signal inhibitor]

Question: For `Clc1cccc(N2CCN(c3c4c(nc5nncn35)CCC4)CC2)c1`, which IkBa stabilization activation is on record?
Answer: inconclusive: -0.688% [signal inhibitor]

Question: Which “IkBa stabilization activation” value does the source give for `COc1ccc(CNCCCSc2nnnn2C)c(OC)c1` here?
Answer: inactive: 2.55%

Question: Which “IkBa stabilization activation” value does the source give for `CC(=O)c1ccc(NC(=O)c2nc(-c3ccccc3)n(-c3ccccc3Cl)n2)cc1` here?
Answer: inactive: -0.876%

Question: Which IkBa stabilization activation does the source give for `O=C1C[C@H]2C(=O)[C@@H]1[C@@H](C(=O)O)[C@H]2C(=O)O` here?
Answer: inactive: -0.446% [at 11.4 µM, scaled: untreated 0%, proteasome inhibitor 100%]
